Test results as given in the supplement of paper PMC9334596.
Where “and” joins values, the source holds several entries; their conditions need not be identical. Identical values can stand only once. Over roughly 5,300 compounds, “PER2::LUC luminescence relative to vehicle control” has its median near 0.96; the highest 2% begin near 1.3. This is one part of the list.

Tested on: mPer2Luc MEF
Experiment: PER2::LUC luminescence relative to vehicle control (fold of vehicle); higher = higher PER2::LUC reporter signal
Conditions: 10 µM
Method in brief: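 Mouse embryonic fibroblasts carrying the mPer2Luc reporter were seeded at ~3000 cells per well in 384-well plates, 48 h before compounds from commercial libraries were added at 10 μM. Cells were grown in DMEM with 10% FBS at 37 °C and 5% CO2. Luminescence was read with the ONE-Glo luciferase assay system 24 h and 30 h after treatment, followed by an alamarBlue viability assay. The value is PER2::LUC luminescence as fold of vehicle control.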

| Compound | PER2::LUC luminescence (time after treatment 24 h) | PER2::LUC luminescence (time after treatment 30 h) |
| --- | --- | --- |
| COc1ccc(C(=O)c2ccc(O)cc2)c(O)c1O | 1.01 | 0.975 |
| COc1ccc(-c2coc3c(OC)c(OC)cc(O)c3c2=O)cc1 | 1.01 | 1.13 |
| COc1c(OCCCN2CCOCC2)ccc2c1N=C(NC(=O)c1cnc(N)nc1)N1CCN=C21 | 0.663 | 0.509 |
| CC(C)(Cc1nc(-c2ccc(O)cn2)no1)C(=O)NC1=C(C(=O)O)CCCC1 | 1.02 | 1.08 |
| C/C(=N\NC(=O)c1cccc(S(=O)(=O)N2CCOCC2)c1)c1cc(Cl)ccc1O | 0.477 | 0.389 |
| COc1ccc2c(c1)OCC(Cc1ccc(OC)c(OC(C)=O)c1)C2=O (stereo unspecified) | 0.664 | 0.695 |
| CC(=O)O[C@H]1C[C@@H](OC(C)=O)C(C)(C)C2C[C@@H](O)[C@]3(C)C(CC[C@@]4(C)[C@H](c5ccoc5)OC(=O)[C@H]5O[C@]543)[C@]21C (stereo partly specified) | 0.791 | 0.837 |
| C=CC1=C(C(=O)O)N2C(=O)[C@@H](NC(=O)/C(=N\OCC(=O)O)c3csc(N)n3)[C@H]2SC1 | 0.929 and 0.486 | 1.07 and 0.797 |
| COc1ccc(CNC(=O)Nc2ncc([N+](=O)[O-])s2)cc1 | 1.35 | 1.27 |
| OCCOCCN1CCN(C(c2ccccc2)c2ccc(Cl)cc2)CC1 (stereo unspecified) | 0.983 and 0.881 | 0.806 and 0.773 |
| CC(=O)Oc1c(C)c(C)c2c(c1C)CCC(C)(CCCC(C)CCCC(C)CCCC(C)C)O2 (stereo unspecified) | 1.02 | 1.06 |
| CC(=O)Nc1ccc(O)cc1 | 0.846 | 0.81 |
| CCOC(=O)C1=CCCC[C@H]1S(=O)(=O)Nc1ccc(F)cc1Cl | 0.77 | 0.812 |
| NC(=S)N/N=C/c1ncccc1N | 0.249 | 0.278 |
| Cc1cccc2c3c(ccc12)C1=C(C(=O)C3=O)C(C)CO1 (stereo unspecified) | 1.08 | 1.05 |
| O=S(=O)(O)CCCS(=O)(=O)O | 1.04 | 0.953 |
| C=CCSCC(N)C(=O)O (stereo unspecified) | 1.12 | 0.997 |
| Nc1nc(SCc2ccc([N+](=O)[O-])cc2)c2ncn([C@@H]3O[C@H](CO)[C@H](O)C3O)c2n1 (stereo partly specified) | 1.03 | 0.922 |
| COc1ccc2[nH]c([S+]([O-])Cc3ncc(C)c(OC)c3C)nc2c1 (stereo unspecified) | 0.886 | 1.08 |
| COc1nc(-c2ccc3c(c2)OCO3)n(-c2ccc(NC(=O)CSc3ccccc3)cc2)n1 | 1.11 | 1.11 |
| O=C(Nc1ccc(-c2ccnc(Nc3ccc(N4CCOCC4)cc3)n2)cc1)C1CCCN1 (stereo unspecified) | 0.956 | 1.03 |
| CCCCC(CC)CN=C(N)N=C(N)NCCCCCCNC(N)=NC(N)=NCC(CC)CCCC (stereo unspecified) | 0.48 | 0.483 |
| CC1(C)CC(NC(=O)C(=O)Nc2ccc(Br)cc2)CC(C)(C)N1 | 0.875 | 0.928 |
| COc1ccc(-c2ccccc2)cc1NS(=O)(=O)c1cc(Cl)cc(Cl)c1O | 1.06 | 0.927 |
| CCCc1nc(C(C)(C)O)c(C(=O)O)n1Cc1ccc(-c2ccccc2-c2nnn[nH]2)cc1 | 0.858 | 1.02 |
| N#C/C(=C\c1ccc(O)c(O)c1)C(=O)NCCCNC(=O)/C(C#N)=C/c1ccc(O)c(O)c1 | 0.978 | 0.972 |

| Compound | PER2::LUC luminescence (time after treatment 24 h) | PER2::LUC luminescence (time after treatment 30 h) |
| --- | --- | --- |
| O=C(OCc1ccccc1)c1ccccc1 | 1.05 | 1.03 |
| OC(CCN1CCCCC1)(c1ccccc1)C1CCCCC1 (stereo unspecified) | 0.787 | 0.923 |
| Cc1ccc2c(Cl)cc(Cl)c(O)c2n1 | 0.989 and 0.694 | 1.03 and 0.911 |
| N=C(N)N/N=C/c1c(Cl)cccc1Cl | 1.08 | 1 |
| Cc1cc(O)c(C=O)c2c1C(=O)Oc1c(COC(=O)/C=C/C(=O)O)c(O)c(C(=O)O)c(C)c1O2 | 0.996 | 0.92 |
| CCC(=O)c1cc(-c2ccc(Cl)cc2)n(-c2ccc(S(N)(=O)=O)cc2)c1C | 0.728 | 0.797 |
| CCCCCCCCCC(=O)N[C@H]1[C@H](Oc2c3cc4cc2Oc2ccc(cc2Cl)[C@@H](O[C@@H]2O[C@H](CO)[C@@H](O)[C@H](O)[C@H]2NC(C)=O)[C@@H]2NC(=O)[C@H](NC(=O)[C@@H]4NC(=O)[C@H]4NC(=O)[C@@H](Cc5ccc(c(Cl)c5)O3)NC(=O)[C@H](N)c3ccc(O)c(c3)Oc3cc(O)cc4c3)c3ccc(O)c(c3)-c3c(OC4O[C@H](CO)[C@@H](O)[C@H](O)[C@@H]4O)cc(O)cc3[C@@H](C(=O)O)NC2=O)O[C@H](CO)[C@@H](O)[C@@H]1O (stereo partly specified) | 0.848 | 1.14 |
| Brc1c(NC2=NCCN2)ccc2nccnc12 | 0.986 | 1.04 |
| CN(C)CCOC(=O)COc1ccc(Cl)cc1 | 0.909 and 0.933 | 0.872 and 1.21 |
| COc1ccc(C[C@@H]2c3cc(OC)c(OC)cc3CC[N@+]2(C)CCC(=O)OCCCCCOC(=O)CC[N@@+]2(C)CCc3cc(OC)c(OC)cc3[C@H]2Cc2ccc(OC)c(OC)c2)cc1OC | 0.676 | 0.663 |
| Nc1cc(-c2ccncc2)c[nH]c1=O | 1.09 and 0.939 | 0.995 and 0.851 |
| CCOC(=O)c1c(C)n(C)c2ccc(O)cc12 | 0.939 | 0.886 |
| C[C@H]1C[C@@H]2[C@H]([C@@H](O)C[C@@]3(C)[C@H]2CC[C@]3(O)C(=O)COC(=O)CCC(=O)O)[C@@]2(C)C=CC(=O)C=C12 | 0.539 | 0.93 |
| Fc1cc(-c2cccc3ncc(-c4cnn(C5CCNCC5)c4)nc23)cc(F)c1CN1CCOCC1 | 0.47 | 0.558 |
| C=C[C@@H]1C[C@]1(NC(=O)[C@@H]1C[C@@H](Oc2ncc(OC)c3ccc(Cl)cc23)CN1C(=O)[C@@H](NC(=O)OC(C)(C)C)C(C)(C)C)C(=O)NS(=O)(=O)C1CC1 | 1.02 | 1.03 |
| COC(=O)C(N)CS (stereo unspecified) | 0.369 | 0.764 |
| CC(N)C12CC3CC(CC(C3)C1)C2 (stereo unspecified) | 0.89 | 0.93 |
| O=C(CS(=O)(=O)Cc1ccccc1)N1CCOCC1 | 0.841 | 0.781 |
| CN(C)CC[C@@H](c1ccc(Cl)cc1)c1ccccn1 | 0.885 | 0.755 |
| COc1cc(OC)cc(C(=O)Nc2ccc(Cl)c(-c3nc4ccc(N(C)C)cc4[nH]3)c2)c1 | 0.977 | 1.35 |
| CN(CCOc1ccc(CC2SC(=O)NC2=O)cc1)c1ccccn1 (stereo unspecified) | 1.12 and 1.05 and 0.707 | 0.939 and 0.982 and 0.92 |
| CCN(c1cc(-c2ccc(CN3CCOCC3)cc2)cc(C(=O)NCc2c(C)cc(C)[nH]c2=O)c1C)C1CCOCC1 | 1.03 and 0.988 | 1.05 and 0.97 |
| NC(N)=O | 1.04 | 0.97 |
| COC(=O)[C@@H]1OC(=O)C2OC23[C@@]1(C)CCC1[C@@]2(C)CCC(=O)C(C)(C)C2C[C@@H](OC(C)=O)[C@]13C (stereo partly specified) | 0.9 | 0.921 |
| Cn1c([N+](=O)[O-])cnc1COC(N)=O | 1.15 | 1.27 |
| COCCOc1nc(N)c2[nH]c(=O)n(Cc3ccccc3)c2n1 | 1.21 | 1.13 |

| Compound | PER2::LUC luminescence (time after treatment 24 h) | PER2::LUC luminescence (time after treatment 30 h) |
| --- | --- | --- |
| O=C(O)/C(=C\c1c(C(=O)O)[nH]c2cc(Cl)cc(Cl)c12)c1ccccc1 | 1.4 | 1.34 |
| CN(C)[C@@H]1C(O)=C(C(N)=O)C(=O)[C@@]2(O)C(O)=C3C(=O)c4c(O)ccc(Cl)c4[C@@H](O)[C@H]3C[C@@H]12 | 0.896 | 0.852 |
| O=C(O)CC1CC(c2ccccc2)=NO1 (stereo unspecified) | 0.994 and 1.06 | 0.948 and 1.15 |
| CCC1(c2c[nH]cn2)Cc2ccccc2C1 | 0.976 | 0.993 |
| Cc1ccc2c(c1)C(=O)C1(O)CCN(c3ccccc3)C1=N2 (racemic) | 0.897 | 0.919 |
| O=C(O)c1cc(N(Cc2ccccc2O)Cc2ccccc2O)ccc1O | 0.973 | 1.02 |
| CC(Oc1ccccc1)C(=O)N[C@@H]1C(=O)N2[C@@H]1SC(C)(C)[C@@H]2C(=O)O (stereo partly specified) | 1.02 | 0.902 |
| CC(C)NC[C@H](O)c1ccc(O)c(O)c1 | 1.01 | 0.859 |
| CC[C@@H]1/C=C(\C)C[C@H](C)C[C@H](OC)[C@H]2O[C@@](O)(C(=O)C(=O)N3CCCC[C@H]3C(=O)O[C@H](/C(C)=C/[C@@H]3CC[C@H](Cl)[C@H](OC)C3)[C@H](C)[C@@H](O)CC1=O)[C@H](C)C[C@@H]2OC | 0.753 | 0.957 |
| COc1ccc(-c2cc(C(F)F)nn2-c2ccc(S(N)(=O)=O)cc2)cc1F | 0.823 | 0.766 |
| Cc1cc(Nc2nc(N[C@@H](C)c3ncc(F)cn3)ncc2Cl)[nH]n1 | 0.994 | 1.11 |
| COc1cc(C(=O)O[C@H]2C/C(C)=C/CC/C(C)=C/[C@H](O)[C@@H]2C(C)C)ccc1O | 1.15 | 1.15 |
| O=C(O)c1cc(O)c2ccc(Cl)cc2n1 | 0.934 | 0.805 |
| C[C@@H]1CC[C@@]2(OC1)O[C@H]1C[C@H]3[C@@H]4CC[C@@H]5C[C@@H](O)CC[C@]5(C)[C@H]4CC[C@]3(C)[C@H]1[C@@H]2C | 1.11 | 1.01 |
| NCCS(=O)O | 0.963 | 0.933 |
| CCCCC(=O)N(Cc1ccc(-c2ccccc2-c2nnn[nH]2)cc1)[C@H](C(=O)O)C(C)C.CCOC(=O)[C@H](C)C[C@@H](Cc1ccc(-c2ccccc2)cc1)NC(=O)CCC(=O)O | 0.991 | 0.904 |
| OC[C@H]1O[C@@H](O[C@@H]2[C@@H](CO)OC(O)(CO)[C@H]2O)[C@H](O)[C@@H](O)[C@H]1O (mixture of isomers) | 1.12 | 1.37 |
| CC[C@@H](Nc1c(Nc2cccc(C(=O)N(C)C)c2O)c(=O)c1=O)c1ccc(C)o1 | 0.95 | 0.961 |
| N[C@@H](C(=O)N[C@@H]1C(=O)N2C(C(=O)O)=C(Cl)CS[C@H]12)c1ccccc1 | 0.976 and 0.773 | 0.899 and 0.773 |
| CN1CCC[C@@H]1c1cccnc1.Cc1ccc(C(=O)O[C@H](C(=O)O)[C@@H](OC(=O)c2ccc(C)cc2)C(=O)O)cc1 | 0.873 | 0.978 |
| COc1ccc(C(=O)NCc2ccc(OCCN(C)C)cc2)cc1OC | 0.512 | 0.513 |
| C=C1C2CC[C@@]3(C)[C@H](c4ccoc4)OC(=O)C[C@]13O[C@H]1CC(O)C(C)(C)C(CC(=O)OC)[C@@]21C (stereo partly specified) | 0.892 | 0.948 |
| C=CC[C@H](N)C(=O)O | 1.05 | 0.937 |
| Brc1ccc([C@H]2CN3CCSC3=N2)cc1 | 1.11 | 0.858 |
| COc1ccc(-c2coc3cc(O)ccc3c2=O)cc1S(=O)(=O)O | 1 | 0.898 |
| CCCCCCCCCCC1=C(C)C(=O)C(OC)=C(OC)C1=O | 1.02 | 0.992 |
